Experimental data: US20190062371A1, “PEPTIDE COMPOSITIONS AND RELATED METHODS” (Allegro Pharmaceuticals, Inc., priority 2017, published 2019)
Counter-ions that a name gives are not always drawn. At least one peptide structure holds a part that was inferred or is arguable (an end, a ring closure or a residue). Some entries repeat one wording, which the source may state once for all of them. Square brackets hold non-standard residues; d marks the D form. Peptide text beside a SMILES is read from it. Cya = N[C@@H](CS(=O)(=O)O)C(=O)O

Legend:
[1] = system: ischemia-induced retinal neovascularization; test: Mouse model of retinopathy of prematurity (ROP), ischemia-induced retinal neovascularization; format: in vivo, C57Bl/6 mice; conditions: for Activity At Dose Tested: intravitreal 20 micrograms, P17; for Mean % Reduction of Retinal Neovascularization In ROP Model: intravitreal injection of 1.0 microliters containing 20 micrograms of Test Compound at P12, neovascular area at P17 (Taurine solutions 3.0 mg/100 μL)
Description: Each test compound was prepared in sterile water for injection, containing 0.08 mg/100 μL of sodium chloride and 0.005 mg/100 μL of trisodium citrate, the concentration of the peptide was at a concentration of […] and pH=2.7 and dispensed by sterile filtration into sterile vials. The Taurine test compound was obtained from Sigma Aldrich company, which was >99% pure, and prepared the same way as mentioned previously, having a concentration of 3.0 mg/100 μL. The R-G-Cys(acid) at 2.0 mg/100 μL+Taurine at 3.0 mg/100 μL were prepared the same way as mentioned above
To screen the test compounds for activity against ischemia-induced retinal neovascularization, the well-established model of retinopathy of prematurity (ROP) in mice was used. Litters of C57Bl/6 mice were placed in 75% oxygen at postnatal day (P) 7, returned to room air at day (P) 12. The Pups were randomly assigned to treatment groups of 4 to 10 animals per group. The pups were treated as follows: Treatment eyes were treated by intravitreal injection of 1.0 microliters of solution containing 20 micrograms of Test Compound.
On post-natal day 17, 5 days after intravitreal injection, the animals were sacrificed, the retinas were flat mounted and the area of neovascularization in each retina was determined by Fluorescein-dextran image analysis.
Applicant has identified the tripeptide R-G-Cysteic(Acid) as an integrin binding motif of the oligopeptide Glycinyl-Arginyl-Glycinyl-Cysteic(Acid)-Threonyl-Proline (ALG-1001 or Luminate®, Allegro Ophthalmics, LLC). The trifluoroacetate (TFA) and acetate salts of the R-G-Cysteic(Acid) tripeptide (Test Compound Nos. 1 and 2) were tested in both the ROP Mouse Model as described above as well as in a mouse model of choroidal neovascularization induced by laser photocoagulation (“CNV Mouse Model”), as generally as described in Lambert, V., et al., Laser-Induced Choroidal Neovascarization Model to Study Age Related Macular Degeneration in Mice, Nature Protocols, 8; 2197-2211 (2013). […] In some of the experiments, an additional “Positive Control” group was included.
The following Table 1 summarizes the neovascularization inhibiting effect of each Test Compound at the dose tested. In each instance, the data was obtained using the ROP Mouse Model, except for the two table entries specifically labeled “CNV”. Only those table entries labeled “CNV” show data obtained from the CNV Mouse Model. Bar graphs showing the test results summarized in Table 1 are also provided herewith as FIGS. 1 through 27.

[2] = system: choroidal neovascularization induced by laser photocoagulation; test: Mouse model of choroidal neovascularization induced by laser photocoagulation (CNV Mouse Model); format: in vivo; conditions: intravitreal injection

SMILES	Activity At Dose Tested [1]	Mean % Reduction of Retinal Neovascularization In ROP Model [1]	further results
N=C(N)NCCC[C@H](N)C(=O)NCC(=O)N[C@@H](CC(N)=O)C(=O)O [Test Compound 16, R-G-N•TFA] (H-Arg-Gly-Asn-OH)	Active	64%	
C[C@H](NC(=O)[C@@H](N)CCCNC(=N)N)C(=O)N[C@@H](CC(=O)O)C(=O)O [Test Compound 23, R-A-D•TFA] (H-Arg-Ala-Asp-OH)	Not Active	0%	
N=C(N)NCCC[C@H](NC(=O)CNC(=O)[C@@H](N)CS(=O)(=O)O)C(=O)O [Test Compound 9, Cys(acid)-G-R•TFA] (H-[Cya]-Gly-Arg-OH)	Active	63%	
N=C(N)NCCC[C@H](N)C(=O)N[C@@H](CCC(=O)O)C(=O)NCC(=O)O [Test Compound 22, R-E-G•TFA] (H-Arg-Glu-Gly-OH)	Not Active	0%	
C[C@H](NC(=O)[C@@H](N)CS(=O)(=O)O)C(=O)N[C@@H](CCCNC(=N)N)C(=O)O [Test Compound 10, Cys(acid)-A-R•TFA] (H-[Cya]-Ala-Arg-OH)	Not Active	0%	
N[C@@H](Cc1c[nH]cn1)C(=O)NCC(=O)N[C@@H](CS(=O)(=O)O)C(=O)O [Test Compound 14, H-G-Cys(acid)•TFA] (H-His-Gly-[Cya]-OH)	Slightly Active	28%	
C[C@H](NC(=O)[C@@H](N)CCCNC(=N)N)C(=O)N[C@@H](CCC(=O)O)C(=O)O [Test Compound 19, R-A-E•TFA] (H-Arg-Ala-Glu-OH)	Active	63%	
N=C(N)NCCC[C@H](NC(=O)[C@H](CS(=O)(=O)O)NC(=O)CN)C(=O)O [Test Compound 11, G-Cys(acid)-R•TFA] (H-Gly-[Cya]-Arg-OH)	Not Active	0%	
N=C(N)NCCC[C@H](N)C(=O)NCC(=O)N[C@@H](CS(=O)(=O)O)C(=O)O [Test Compound 2, R-G-Cys(acid)•Acetate] (H-Arg-Gly-[Cya]-OH)	Active		Mean % Reduction of Retinal Neovascularization In ROP Model ([1]; listed as 2): 72%; Mean % Reduction of Retinal Neovascularization (entries labeled CNV) ([2]; FIG. 11, listed as 2): 56 - FIG. 11%
NCCCC[C@H](N)C(=O)NCC(=O)N[C@@H](CC(=O)O)C(=O)O [Test Compound 20, K-G-D•TFA] (H-Lys-Gly-Asp-OH)	Active	40%	
N=C(N)NCCC[C@H](N)C(=O)NCC(=O)N[C@@H](CS(=O)(=O)O)C(=O)O [Test Compound 1, R-G-Cys(acid)•TFA] (H-Arg-Gly-[Cya]-OH)			Mean % Reduction of Retinal Neovascularization In ROP Model ([1]; listed as 1): 61%; Activity At Dose Tested (entries labeled CNV) [2]: Active; Mean % Reduction of Retinal Neovascularization (entries labeled CNV) ([2]; FIG. 11, listed as 1): 49 - FIG. 11%
N=C(N)NCCC[C@H](N)C(=O)NCC(=O)N[C@@H](CC(=O)O)C(=O)O [Test Compound 15, R-G-D•TFA]	Slightly Active	37%	
NCCCC[C@H](N)C(=O)NCC(=O)N[C@@H](CS(=O)(=O)O)C(=O)O [Test Compound 6, K-G-Cys (acid)•TFA] (H-Lys-Gly-[Cya]-OH)	Not Active	0%	
N=C(N)NCCC[C@H](NC(=O)CNC(=O)[C@@H](N)CC(=O)O)C(=O)O [Test Compound 17, D-G-R•TFA] (H-Asp-Gly-Arg-OH)	Active	56%	
N=C(N)NCCC[C@H](N)C(=O)N[C@@H](CS(=O)(=O)O)C(=O)NCC(=O)O [Test Compound 5, R-Cys(acid)-G•TFA] (H-Arg-[Cya]-Gly-OH)	Slightly Active	33%	
N=C(N)NCCC[C@H](N)C(=O)NCC(=O)N[C@@H](CCC(=O)O)C(=O)O [Test Compound 21, R-G-E•TFA, reference compound] (H-Arg-Gly-Glu-OH)	Not Active	0%	
N=C(N)NCCC[C@H](N)C(=O)NCC(=O)N[C@@H](CS)C(=O)O [Test Compound 4, R-G-Cysteine•TFA] (H-Arg-Gly-Cys-OH)	Active	66%	
N=C(N)NCCC[C@H](NC(=O)[C@@H](N)CS(=O)(=O)O)C(=O)NCC(=O)O [Test Compound 8, Cys(acid)-R-G•TFA] (H-[Cya]-Arg-Gly-OH)	Slightiy Active	21%	
